Measurements from article PMC6919601, “Identification of Plasmodium dipeptidyl aminopeptidase allosteric inhibitors by high throughput screening” (PLoS ONE, 2019).
The whole screen tested about 110,000 compounds, of which about 230 (0.21%) showed an effect of 50% or more. This is one part of the list.

The compounds below were run against DPAP1 (Plasmodium falciparum, UniProt Q8IIJ9) (assay: primary screen, percent inhibition; read by cleavage of a fluorogenic dipeptide substrate; higher = more effect of the substance).
DPAP1, sequence (Q8IIJ9 whole entry, looked up): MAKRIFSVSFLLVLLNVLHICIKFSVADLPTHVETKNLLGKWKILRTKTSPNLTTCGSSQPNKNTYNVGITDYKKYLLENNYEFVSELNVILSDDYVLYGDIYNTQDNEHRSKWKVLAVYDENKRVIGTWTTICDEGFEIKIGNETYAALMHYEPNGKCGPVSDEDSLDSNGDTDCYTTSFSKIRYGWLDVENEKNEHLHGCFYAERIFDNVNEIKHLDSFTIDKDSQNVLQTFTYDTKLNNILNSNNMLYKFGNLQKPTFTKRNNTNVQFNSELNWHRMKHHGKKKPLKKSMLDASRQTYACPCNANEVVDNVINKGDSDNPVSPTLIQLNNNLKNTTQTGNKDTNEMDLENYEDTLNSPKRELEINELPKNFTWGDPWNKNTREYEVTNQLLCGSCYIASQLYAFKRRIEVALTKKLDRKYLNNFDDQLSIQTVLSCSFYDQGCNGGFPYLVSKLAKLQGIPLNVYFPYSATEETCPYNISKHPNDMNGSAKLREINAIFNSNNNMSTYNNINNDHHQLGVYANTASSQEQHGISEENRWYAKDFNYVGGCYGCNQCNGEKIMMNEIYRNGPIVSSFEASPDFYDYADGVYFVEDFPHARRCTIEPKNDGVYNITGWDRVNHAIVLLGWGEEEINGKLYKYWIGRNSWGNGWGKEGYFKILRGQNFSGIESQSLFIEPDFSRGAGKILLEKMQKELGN
Design: species or system P. falciparum D10 trophozoite lysates; single well
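Also: 30 min substrate incubation versus DMSO and 10 µM JCP410 controls.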

SMILES	% Inhibition @ 10 uM
COC(=O)c1cc(O)c2c(C)nc(C(Cl)(Cl)Cl)nc2n1	-3.64%
COc1ccc(S(=O)(=O)NCc2ccccn2)cc1C	3.49%
Cc1cc(Br)c(NC(=O)C2CCCN2C(=O)OC(C)(C)C)cc1C (stereo not drawn)	-6.81%
O=C(c1cccc(Cl)c1)n1nc(-c2cccnc2)nc1NCc1cccs1	3.81%
COc1ccc(S(=O)(=O)Nc2ccc(O)c(C(=O)O)c2)cc1	2.67%
O=C(CSc1nc2ccccc2c(=O)n1C1CCCCC1)N1CCCCC1	6.1%
Clc1ccc(N2CCN(Cc3c(Cl)cccc3Cl)CC2)cc1	-4.75%
Cc1[nH]c2ccc(F)cc2c1CCNC(=S)NC(C)(C)C	4.41%
c1ccc(Cn2c3c(c4ccccc42)CCc2c-3cnn2-c2ccccc2)cc1	-2.63%
CCCOc1ccc(C(=O)C2=C(O)C(=O)N(Cc3cccnc3)C2c2ccc(OC)cc2)cc1C (stereo not drawn)	-7.58%
O=C1C(=Cc2ccc(-c3ccc(F)cc3F)o2)C(=O)c2ccccc21	4.66%
N=C1S/C(=C\c2ccc(-c3cccc(F)c3)o2)C(=O)N1c1nonc1N	1.86%
CCOC(=O)c1ccc(Oc2nc(C)cc(OC)n2)cc1	0.884%
COc1ccc(Cn2nnc3c(O)nc(C4CCCN(S(=O)(=O)c5ccccc5)C4)nc32)cc1 (stereo not drawn)	-2.28%
CCOc1ccc(-c2nc3c(c(SCC(N)=O)n2)Cc2cccc(C)c2O3)cc1	-8.42%
CCOC(=O)c1cc(-c2ccc3c(c2)OCCO3)[nH]n1	4.98%
O=C(O)CCCN1Cc2ccccc2C1	3.93%
CCOC(=O)C1=C(C)N=c2s/c(=C\c3ccc(N(C)C)o3)c(=O)n2C1c1ccc(OC)cc1OC (stereo not drawn)	9.03%
COc1cc(C2C(C#N)=C(N)Oc3cc(O)ccc32)cc(OC)c1OC (stereo not drawn)	-4.6%
O=C(C1CC(c2ccccc2F)=NO1)N1CCC2(CC1)OCCO2 (stereo not drawn)	-3.94%
O=C(NCc1ccccc1Cl)C1CCCN(S(=O)(=O)c2cccc3cccnc23)C1 (stereo not drawn)	-6.52%
Cc1cc2ncn(C(C)c3ccccc3)c2cc1C (stereo not drawn)	-0.764%
CCOc1ccc(N(CC(=O)Nc2ccccc2C)S(=O)(=O)c2ccc(C)cc2)cc1	-1.24%
CC(C)c1ccc(NC(=O)c2ccc(N(C)C)cc2)cc1	-3.95%
CC1CN(S(=O)(=O)Cc2ccccc2)CC(C)O1 (stereo not drawn)	0.219%

SMILES	% Inhibition @ 10 uM
CCC(O)c1nc2ccccc2n1CC1CCCCC1 (stereo not drawn)	-1.31%
CCOc1ccc(/C=C/c2nc(O)c([N+](=O)[O-])c(O)n2)cc1	0.634%
Cc1ccccc1NC(=O)CCCCCCC(=O)Nc1ccccc1C	1.27%
CCN(CC)S(=O)(=O)c1ccc(Cl)c(C(=O)Nc2nccs2)c1	-8.31%
O=S(=O)(c1cccc(C(F)(F)F)c1)N1CCN(Cc2ccc3c(c2)OCO3)CC1	-1.57%
CCOC(=O)c1ccc(NC(=O)Nc2ccc(Cl)c(Cl)c2)cc1	2.55%
CN(C)CCCn1c(N)c(S(=O)(=O)c2ccccc2)c2nc3ccccc3nc21	-1.45%
CCc1cc(C(=O)CCC(=O)OC)c(CC)s1	2.33%
COc1ccc(C2CC(=O)NC3=C2C(=O)CC(c2cccs2)C3)cc1OC (stereo not drawn)	-8.2%
COc1ccc(C2C(C#N)=C(N)Oc3[nH]nc(C)c32)cc1COc1cccc(Br)c1 (stereo not drawn)	-0.25%
CC1CC(C)CN(C(=O)NCc2noc3ccccc23)C1 (stereo not drawn)	0.857%
Fc1ccccc1N1CCN(CC2CC3C=CC2C3)CC1 (stereo not drawn)	2.7%
CCOc1ccc(C2C3=C(O)CC(C)(C)CC3=Nc3nn(-c4ccccc4)c(O)c32)cc1 (stereo not drawn)	1.19%
COc1cccc(NC(=O)c2ccc(-c3ccccc3)cc2)c1	-9.12%
C=C(C)CN(CC)C1CCN(C(C)=O)CC1	2.7%
O=C(O)c1ccc(Br)c(S(=O)(=O)N2CCCCC2)c1	-0.546%
COc1ccc(N2CCN(C(=O)C(C)N(c3ccccc3)S(C)(=O)=O)CC2)cc1 (stereo not drawn)	0.131%
CCOc1ccc(C(=O)Nc2ccccc2Br)cc1	0.13%
O=C(O)CCCCCn1c(SCC(=O)c2ccc(O)c(O)c2)nc2ccsc2c1=O	4.17%
COc1cccc(C(=O)Nc2cc3c(cc2C(=O)c2ccccc2Cl)OCCO3)c1	-8.36%
COc1ccc2nc(NC(=O)CN(C)S(=O)(=O)c3cccc4nsnc34)sc2c1	0.317%
O=C(c1ccccc1O)N1N=C(c2ccc(Cl)cc2)CC1(O)C(F)(F)F (stereo not drawn)	-4.16%
Cc1nn(C)cc1C(=O)Nc1cnn(Cc2ccc(F)cc2)c1	4.31%
C=CCNC(=O)C1CC(c2ccccc2F)=NO1 (stereo not drawn)	-5.79%
CCc1ccc2oc(C(=O)N(Cc3ccccc3F)C3CCS(=O)(=O)C3)c(C)c2c1 (stereo not drawn)	-5.18%

SMILES	% Inhibition @ 10 uM
Cc1cc(Oc2ccc(-c3ccccc3)cc2)nc(-c2ccccc2)n1	-3.26%
CC(C)Cc1ccc(-c2[nH]nc3c2C(c2cccnc2)C(C#N)=C(N)O3)cc1 (stereo not drawn)	-0.68%
O=C(C1CCC(CNc2c(N3CCCCC3)c(=O)c2=O)CC1)N1CCN(C2CCCCC2)CC1 (stereo not drawn)	-0.447%
CCOc1ccc(N2CC(C(=O)Nc3ccc(Br)cc3C)CC2=O)cc1 (stereo not drawn)	4.05%
Clc1ccc(C2=NN(c3ccc(Br)cc3)C(c3cccs3)C2)cc1 (stereo not drawn)	-6.27%
CCOC(=O)N1CCC(NC2C3CC4CC(C3)CC2C4)CC1 (stereo not drawn)	-1.75%
CCc1ccc(OCCCC(=O)Nc2ccccc2OC)cc1	0.13%
COc1cc(/C=C2\C(=O)NC(=S)N(c3cccc(Cl)c3)C2=O)ccc1O	3.61%
CCCn1c(=N)c(S(=O)(=O)c2ccc(C)cc2)cc2c(=O)n3cccc(C)c3nc21	-6.92%
O=C(Nc1nc(-c2ccc(F)cc2)cs1)c1cccnc1	-7.3%
O=C(NCCc1ccc2c(c1)OCO2)c1ccc(F)cc1	1.96%
O=c1oc2cc(S(=O)(=O)N3CCCCC3)ccc2c2ccc(S(=O)(=O)N3CCCCC3)cc12	-1.82%
CC(C)(CO)NCc1cccc(OCc2ccc(Cl)cc2Cl)c1	-8.33%
N#Cc1sc2nc(-c3ccccc3)c3c(c2c1N)CCCC3	-0.969%
Cc1nc(C(=O)Nc2ccc(Cl)cc2)c(C(=O)NC(C)C)nc1C	-1.96%
CCc1ccc(C(C)NC(=O)c2ccc3c(c2)OCO3)cc1 (stereo not drawn)	-0.63%
CCOC(=O)c1[nH]c2ccccc2c1NC(=O)C1c2ccccc2OC2C=CC=CC21 (stereo not drawn)	-0.58%
Cn1c(-c2ccccc2)nc2c(c1=O)C1(CCCC1)Cc1ccccc1-2	-1.02%
COc1cc(C2c3c(oc4ccccc4c3=O)C(=O)N2Cc2ccc3c(c2)OCO3)ccc1O (stereo not drawn)	-1.33%
Fc1cccc(Cl)c1CNCCCSc1nnnn1-c1ccccc1	0.596%
CCc1ccc(-c2nc(CN3CCC(C(=O)NCc4ccc(C)cc4)CC3)c(C)o2)cc1	3.99%
O=C(CCN1C(=O)c2cccc3cccc(c23)C1=O)NCc1cccnc1	8.66%
COCCNC(=O)C1CC(=O)N(CCc2ccccc2)C1 (stereo not drawn)	-0.0542%
COc1ccc(/C=C2\C(=O)NC(=O)N(C)C2=O)c2ccccc12	0.587%
COc1ccc2[nH]c(SCC(=O)Nc3cc(C)on3)nc2c1	1.72%

SMILES	% Inhibition @ 10 uM
Cc1nn(Cc2ccccc2Cl)c(C)c1NC(=O)c1cc(-c2ccc3c(c2)OCO3)on1	-10.7%
Cn1c(=O)c2ncn(CC(=O)Nc3cccc(O)c3)c2n(C)c1=O	-1.61%
CCOc1ccc(CCNC(=O)Cn2nnc(-c3ccc(F)cc3)n2)cc1OCC	2.18%
COc1cccc(C(=O)N2CCN(C(c3ccccc3)c3ccccc3)CC2)c1	-5.82%
N#CCc1ccc(NC(=O)c2cccnc2Cl)cc1	2.17%
CCCNC(=O)/C(=C/c1cn(S(=O)(=O)N(C)C)c2ccccc12)NC(=O)c1ccccc1OC	-0.0235%
CCOc1ccc(NC(=O)CN(c2c(C)cccc2C)S(C)(=O)=O)cc1	-5.27%
CC1=C(CCN2CCN(c3cccc(Cl)c3)CC2)C(C)(C)CCC1	-3.5%
CC1=NN(c2ccccc2)C(=O)/C1=C\c1c(C)nn(-c2ccccc2)c1O	0.162%
CC(NC(=O)c1cccc2ccccc12)c1ccccc1 (stereo not drawn)	5.77%
Cc1cc(C)c(C#N)c(SCc2ccccc2F)n1	40.7%
CCn1c(NCc2ccc3c(c2)OCO3)nc2ccccc21	-1.88%
Cc1cc(OCC(=O)N2CCC(C)CC2)ccc1Br	-3.33%
CCc1nn(-c2cc(Oc3cccc(C)c3)ncn2)c(N)c1C#N	-5.34%
CN(C)/C=C/C=C1C(=O)CCCC1=O	1.62%
O=C(O)[C@H]1CCCC[C@H]1C(=O)Nc1ccc(S(=O)(=O)NC2CCCCC2)cc1	-4.31%
N#Cc1c(SCc2ccccc2)nc2c(c1-c1cccs1)CCCC2	-0.216%
Cc1nn(CCCC(=O)NCCCc2ccccc2)c(=O)c2cc3sccc3n12	0.137%
CCOc1ccc(CCNC(=O)CCc2c(C)nc3c(c(C)nn3C(C)(C)C)c2C)cc1OCC	4.54%
COc1cc(OC)c(OC)cc1/C=C1\N=C(c2ccc(C(C)(C)C)cc2)OC1=O	-9.58%
CCC(Oc1ccccc1)C(=O)Nc1cccc(C)c1C (stereo not drawn)	-5.82%
Cc1cc(-c2ccc(NC(=O)c3ccncc3)c(C)c2)ccc1NC(=O)c1ccncc1	-3.18%
OCCn1c(-c2ccc(Br)cc2)cn2c3ccccc3nc12	2.78%
CN1C(=O)c2ccc3c4c(ccc(c24)C1=O)C(=O)N(C)C3=O	-4.82%
